Data reported in PubChem BioAssay AID686978 (National Center for Advancing Translational Sciences (NCATS), 2013).
Hit rate of the full screen: of about 420,000 compounds, about 64,000 (15%) were called active. The shares of active, inactive and inconclusive entries below differ from those in the screen. Calls come from the whole dose curve; as a rule, active = well fitted inhibition curve with a large enough effect; inconclusive = small, poorly fitted or top-dose-only effect; inactive = flat fitted curve, though single readings scatter. No potency is given beside an inconclusive call; the fits are too rough.

Experiment: qHTS for Inhibitors of human tyrosyl-DNA phosphodiesterase 1 (TDP1): qHTS in cells in absence of CPT; note: nearly all actives have a fitted effect of over 55% in size
Details: DT40 Tdp1-/- hTDP1 cells, no CPT, ATP luminescence, 48 h; series mostly up to 46.2 µM
How it was run: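 No-CPT arm: Tdp1-/-;hTDP1 DT40 cells (400/well) plus compounds, incubated ≥48 hr at 37 °C. Readout CellTiter-Glo luminescence.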
Potency is the fitted concentration of half-maximal effect; tags give direction and shape of the fitted curve.

With `Nn1c(COc2ccccc2F)nnc1SCC(=O)NC1CC1` as the molecule, how does the Potency read?
The Potency was “inactive”.

With `COc1cccc(Cn2c(=O)n(-c3ccc(Br)cc3F)c(=O)c3sc4ccccc4c32)c1` as the molecule, how does the Potency read?
Its Potency is inconclusive [inhibitor, full curve].

Which Potency does the source give for `CC(O)C(NS(=O)(=O)c1ccc(Cl)cc1)C(=O)OCC(=O)c1ccc2c(c1)NC(=O)CO2` (stereo unspecified) here?
The Potency was “inactive”.

Which Potency does the source give for `FC(F)(F)c1ccc(C2[C@H]3CN(Cc4cccnc4)[C@H](c4ccccc4)C34CC2(c2ccccc2)C4)cc1` (stereo partly specified) here?
The Potency was inconclusive [inhibitor, single point].

With `CC(NC(=O)c1cccc(OC2CCN(C3CCN(C)CC3)CC2)c1)c1ccccc1` (stereo unspecified) as the molecule, how does the Potency read?
The Potency was inconclusive [inhibitor, single point].

For `COc1ccc(N(Cc2ccccc2)C(=O)c2nc(SC)ncc2Cl)cc1`, which Potency is on record?
The Potency was active: 5.17 µM.

For `O=C(COc1ccccc1F)Nc1ccc2c(c1)CCC2`, which Potency is on record?
The Potency was inconclusive [inhibitor, partial curve].

Which Potency does the source give for `COc1ccc(CNc2ncc(-c3ccccc3)n2C)c(OC)c1OC` here?
Its Potency is active: 14.6 µM.

For `O=C(COc1ccccc1[N+](=O)[O-])NCC1(N2CCOCC2)CCCCC1`, which Potency is on record?
The Potency was active: 20.6 µM.

Which Potency does the source give for `CC(C)Cn1c(-c2csc(C(C)C)c2)n[nH]c1=S` here?
The Potency was inconclusive [inhibitor, partial curve, poor fit].

Which Potency does the source give for `COc1ccccc1N1CCN(C2CCCN(C(=O)c3ccsc3)C2)CC1` (stereo unspecified) here?
The Potency was inconclusive [inhibitor, single point].

Which Potency does the source give for `Cc1ccc(NC(=O)CC2Nc3cccc4cccc(c34)NC2=O)cc1` (stereo unspecified) here?
Its Potency is active: 6.51 µM.

With `CCc1nc(CNC(=O)C2CCC(=O)N(Cc3ccccc3F)C2)no1` (stereo unspecified) as the molecule, how does the Potency read?
Its Potency is “inactive”.

Which Potency does the source give for `CCc1nc2c(OCCn3cccc3)cccn2c1N(C=O)Cc1ccc(OC)cc1` here?
The Potency was inconclusive [inhibitor, single point].

For `Cc1ccc(Nc2nc(N)c([N+](=O)[O-])c(N3CCC(C)CC3)n2)cc1C`, which Potency is on record?
Its Potency is inconclusive [inhibitor, single point].

For `O=C(O)/C=C/c1ccc2ccccc2n1`, which Potency is on record?
Its Potency is “inactive”.

For `CN1CCN(c2ccccc2NC(=O)c2ccc(-c3ccc(Br)cc3)o2)CC1`, which Potency is on record?
The Potency was active: 3.26 µM.

With `NS(=O)(=O)c1cccc(NC(=O)CSc2nn(-c3ccccc3)c(=S)s2)c1` as the molecule, how does the Potency read?
The Potency was inconclusive [inhibitor, single point].

For `O=C(Nc1ccc(F)cc1F)N1CCN(CCc2ccccc2)CC1`, which Potency is on record?
Its Potency is “inactive”.

With `O=c1[nH]c(N/N=C/c2ccc(O)cc2)nc2ccccc12` as the molecule, how does the Potency read?
The Potency was active: 23.1 µM.

For `COc1ccc(Br)cc1C1CC(=O)N2CN(C)CSC2=C1C#N` (stereo unspecified), which Potency is on record?
Its Potency is inconclusive [inhibitor, single point].
